# Experimental data as given in the supplement of paper PMC3334620.
# Whole data set: some 33,000 sequences, median “E-score (-0.5 to 0.5)” near -0.035, cut for the highest 2% near 0.35. Some of the results follow.
# Target: T1, Pdr3 (UniProt P33200)
# T1 sequence: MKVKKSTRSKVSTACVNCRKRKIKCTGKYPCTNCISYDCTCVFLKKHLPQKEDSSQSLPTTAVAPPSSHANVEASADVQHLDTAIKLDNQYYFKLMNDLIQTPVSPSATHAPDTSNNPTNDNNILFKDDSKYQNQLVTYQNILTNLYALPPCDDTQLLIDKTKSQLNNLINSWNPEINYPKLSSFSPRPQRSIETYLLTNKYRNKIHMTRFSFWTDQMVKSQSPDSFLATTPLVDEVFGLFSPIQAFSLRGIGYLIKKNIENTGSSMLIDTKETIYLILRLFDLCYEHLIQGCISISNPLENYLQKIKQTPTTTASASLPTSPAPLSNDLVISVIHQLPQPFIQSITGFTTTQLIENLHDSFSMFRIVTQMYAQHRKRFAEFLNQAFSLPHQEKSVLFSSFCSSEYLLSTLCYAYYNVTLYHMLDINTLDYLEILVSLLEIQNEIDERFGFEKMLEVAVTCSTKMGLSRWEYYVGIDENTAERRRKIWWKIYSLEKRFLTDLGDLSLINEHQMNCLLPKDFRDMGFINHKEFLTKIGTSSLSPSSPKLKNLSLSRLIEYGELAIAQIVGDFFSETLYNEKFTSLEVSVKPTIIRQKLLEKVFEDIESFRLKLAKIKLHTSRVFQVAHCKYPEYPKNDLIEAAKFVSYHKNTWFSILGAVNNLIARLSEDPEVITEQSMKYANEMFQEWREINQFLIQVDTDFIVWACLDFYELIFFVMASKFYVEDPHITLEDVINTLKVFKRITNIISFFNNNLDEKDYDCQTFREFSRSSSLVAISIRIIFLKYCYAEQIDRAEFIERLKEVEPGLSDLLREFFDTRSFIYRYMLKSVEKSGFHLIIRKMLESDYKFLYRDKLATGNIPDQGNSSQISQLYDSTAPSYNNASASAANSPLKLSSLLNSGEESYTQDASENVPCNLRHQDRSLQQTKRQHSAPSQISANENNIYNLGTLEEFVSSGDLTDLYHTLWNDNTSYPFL
# Test: PBM E-score (8-mer binding enrichment) (E-score (-0.5 to 0.5)); higher = stronger / more preferred TF binding; most listed sequences are background and not binding sites
# Details: protein concentration: 200 nM; construct: GST-full length
# Procedure, shortened: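 Using PURExpress in vitro transcription/translation, GST-tagged yeast transcription factors were made in full-length or DNA-binding-domain form. These were applied at about 100-200 nM to double-stranded universal all-10-mer Agilent arrays, and bound protein was detected with fluorescent anti-GST. Scans were normalised with masliner before the Universal PBM Analysis Suite assigned E-scores to ungapped eight-base words pooled with their reverse complements.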
row,Sequence,PBM E-score
1,ATATTAGG,-0.0801
2,AGGATGGA,0.0183
3,AGTACCCC,-0.0187
4,ATTGCAAT,0.208
5,ATCGACAA,0.101
6,TAACGACA,-0.132
7,GTAGCTCA,-0.141
8,ATCAAAGA,-0.143
9,GATTCGGC,0.269
10,CCCTAGAG,-0.0655
11,GCCTATCC,-0.0464
12,ATTTGGGA,-0.0863
13,ACGTGCCT,-0.202
14,ATCTTCGG,0.146
15,GTTACAAC,-0.0307
16,AAACTAAT,0.146
17,ATCCCATC,-0.0699
18,AGCCTGCG,-0.108
19,GTCCCCAC,-0.0465
20,GAGTGGTA,-0.08
21,ATGTCAAT,0.0385
22,AATCGAAC,-0.114

row,Sequence,PBM E-score
1,TATAGGAA,-0.134
2,GACTCACC,-0.126
3,GCCACTCA,-0.0519
4,CTTCGAAC,0.0998
5,GTATCAGA,-0.0254
6,GGACTGCA,-0.177
7,CAGTTGTC,-0.0452
8,GACTAGAA,-0.203
9,CTTGGGTA,-0.0381
10,ATCGGCGG,0.341
11,CGGACCCC,0.198
12,ACATCAGC,0.0189
13,GGACAAAC,0.0155
14,ATCAATGC,0.131
15,AACATCCA,-0.0276
16,GAAAAGGA,0.0166
17,ATAGCCAG,-0.222
18,AATAACAC,0.149
19,GACCAAGC,-0.117
20,AAACCCAG,-0.171
21,ACATCAAC,0.13
22,CCACCAAG,-0.134

row,Sequence,PBM E-score
1,ATGGAAAA,0.0967
2,ACCTCCAA,-0.187
3,ACGGGTCA,0.0219
4,CCTGATCG,-0.0324
5,TCCTGCCA,-0.148
6,GAGCTAAA,-0.136
7,AAATTGAT,0.103
8,ATTTGTGA,-0.153
9,AGGGACCT,-0.108
10,ATGATCTG,-0.0589
11,AAATACAT,-0.171
12,ACAACTGC,-0.0933
13,CCAAAGTA,-0.0672
14,AGGCTGAG,-0.279
15,CAAACCAC,-0.0587
16,ACATCAAT,-0.0619
17,GAAGTTAA,-0.118
18,CAACATCC,0.118
19,CGACAAGC,0.00105
20,CGCTGTGC,0.223
21,CCGGGAGC,0.306
22,GAGTCAGA,-0.0205

row,Sequence,PBM E-score
1,AACTCCGA,0.281
2,ACTAACAG,-0.0121
3,CCAATTAA,-0.0101
4,AAAAACGG,0.236
5,AGTGTTAA,-0.00935
6,AGAGGAAA,0.0754
7,CTGTAGAA,-0.0542
8,AGGACAAT,-0.0605
9,ATGCATTA,0.0435
10,GATAGCAA,-0.0468
11,ACTGAGCC,0.0738
12,CCGTTATA,0.113
13,ACACAGAG,-0.0916
14,AGTCTGAA,-0.303
15,ACGCCTTG,-0.11
16,AAAGCTTT,0.00459
17,AAAACAGT,0.124
18,ACAGCCCG,0.0226
19,ATAGTCTC,-0.0152
20,AGTACGGA,0.34
21,ACTCAGAC,-0.0975
22,CAATAAAA,-0.0487

row,Sequence,PBM E-score
1,CCGGCTGC,0.338
2,AATCTCTG,-0.185
3,AGAGAGAA,-0.131
4,AAAAGGCC,-0.162
5,CTGATGGA,-0.0342
6,CCTTGTGA,-0.0319
7,CGCTGCCC,0.13
8,CGGTTTCA,0.0642
9,CAAGGTGG,-0.004
10,CACAACGA,0.048
11,CAGTGCCG,0.211
12,GCAGATTA,-0.00313
13,AATTATTC,0.0849
14,CGGGGTAG,0.104
15,AGCTAAGG,-0.302
16,ACCACCAC,-0.0652
17,AGAAATTC,0.144
18,AAATCGCA,-0.057
19,GGAGAACA,0.0583
20,CAAACCTG,-0.189
21,CTAGCAAG,-0.231
